Common to all, as to assay: co-IP; HA-tagged Rab overexpressed in HEK293A cells; lysate at 1.0 mg/ml in lysis buffer with 1% Triton X-100; HA-agarose, 4 °C, 2 h, three washes; GDI1 and GDI2 detected by immunoblotting
(In general: Immunoblotting shows a protein as a band on a membrane.)

Protein sequences, listed by entry. Tags and fused reporters are not part of them.
UniProt P61026: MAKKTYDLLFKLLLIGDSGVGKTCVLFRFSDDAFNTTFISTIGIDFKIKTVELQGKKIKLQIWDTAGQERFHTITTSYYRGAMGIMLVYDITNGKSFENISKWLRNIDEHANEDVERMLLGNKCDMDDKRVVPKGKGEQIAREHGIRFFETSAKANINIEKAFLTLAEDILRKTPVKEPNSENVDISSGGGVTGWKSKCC

Assay [1] deals with HA-Rab10 (WT) (human) (UniProt P61026).
Assay [2] addresses T1, HA-Rab29 (WT) (human) (UniProt O14966).
T1 sequence: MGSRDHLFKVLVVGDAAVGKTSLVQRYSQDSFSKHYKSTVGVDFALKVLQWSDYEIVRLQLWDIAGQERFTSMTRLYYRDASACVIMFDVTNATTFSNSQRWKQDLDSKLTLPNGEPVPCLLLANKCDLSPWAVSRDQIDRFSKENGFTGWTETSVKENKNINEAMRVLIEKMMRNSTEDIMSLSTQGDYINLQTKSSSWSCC

Assay [3] concerns the target T2, HA-Rab29 D63A (human) (UniProt O14966).
T2 sequence: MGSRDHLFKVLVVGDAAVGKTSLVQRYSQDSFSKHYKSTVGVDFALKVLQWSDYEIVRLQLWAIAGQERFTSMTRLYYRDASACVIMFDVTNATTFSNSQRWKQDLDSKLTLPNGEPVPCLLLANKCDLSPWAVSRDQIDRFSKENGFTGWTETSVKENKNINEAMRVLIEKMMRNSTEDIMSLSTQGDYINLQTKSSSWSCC

No constants are given. Whether binding was seen depends on the method and setting. In cells and extracts the contact can be indirect. Some results given as binding are weak or reduced against the parent protein; the word gives no strength. For part of these data: Where a sequence is shown, tags or fusion partners need not be part of it.

B1: GDI1 (protein, UniProt P31150 1-447)
chain: MDEEYDVIVLGTGLTECILSGIMSVNGKKVLHMDRNPYYGGESSSITPLEELYKRFQLLEGPPESMGRGRDWNVDLIPKFLMANGQLVKMLLYTEVTRYLDFKVVEGSFVYKGGKIYKVPSTETEALASNLMGMFEKRRFRKFLVFVANFDENDPKTFEGVDPQTTSMRDVYRKFDLGQDVIDFTGHALALYRTDDYLDQPCLETVNRIKLYSESLARYGKSPYLYPLYGLGELPQGFARLSAIYGGTYMLNKPVDDIIMENGKVVGVKSEGEVARCKQLICDPSYIPDRVRKAGQVIRIICILSHPIKNTNDANSCQIIIPQNQVNRKSDIYVCMISYAHNVAAQGKYIAIASTTVETTDPEKEVEPALELLEPIDQKFVAISDLYEPIDDGCESQVFCSCSYDATTHFETTCNDIKDIYKRMAGTAFDFENMKRKQNDVFGEAEQ
For the molecule B1, the binding entry in assay [1] is recorded as “binds”; in assay [2], “no binding”; in assay [3], “no binding”.

B2: GDI2 (protein, UniProt P50395 1-445)
chain: MNEEYDVIVLGTGLTECILSGIMSVNGKKVLHMDRNPYYGGESASITPLEDLYKRFKIPGSPPESMGRGRDWNVDLIPKFLMANGQLVKMLLYTEVTRYLDFKVTEGSFVYKGGKIYKVPSTEAEALASSLMGLFEKRRFRKFLVYVANFDEKDPRTFEGIDPKKTTMRDVYKKFDLGQDVIDFTGHALALYRTDDYLDQPCYETINRIKLYSESLARYGKSPYLYPLYGLGELPQGFARLSAIYGGTYMLNKPIEEIIVQNGKVIGVKSEGEIARCKQLICDPSYVKDRVEKVGQVIRVICILSHPIKNTNDANSCQIIIPQNQVNRKSDIYVCMISFAHNVAAQGKYIAIVSTTVETKEPEKEIRPALELLEPIEQKFVSISDLLVPKDLGTESQIFISRTYDATTHFETTCDDIKNIYKRMTGSEFDFEEMKRKKNDIYGED
Regarding B2, the binding entry in assay [1] is on record as “binds”; in assay [2], “no binding”; in assay [3], “no binding”.

Values taken from publication PMC9574512.
